Numbering of substitutions follows the chain as printed; changes in the protein carry UniProt numbers. This is one part of the list.

T1: RBFOX1 RRM (Homo sapiens, UniProt Q9NWB1 109-208)
T1 sequence: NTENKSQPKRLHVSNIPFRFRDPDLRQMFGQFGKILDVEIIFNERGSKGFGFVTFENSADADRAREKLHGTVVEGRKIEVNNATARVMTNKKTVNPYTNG

B1: UCAUUCU (DNA:RNA)
RNA: GGGAGACCGGAAUUCAGAUUGUCCUCAUUCUUUAAAUCCCGUCGUAGCCACCA
DNA 1: CAATCTGAATTCCGGTCTCCC
DNA 2: TGGTGGCTACGACGGGATT
B2: CGCCGGU (DNA:RNA)
RNA: B1 RNA with U25C, C26G, A27C, U28C, U29G, C30G
DNA 1: CAATCTGAATTCCGGTCTCCC
DNA 2: TGGTGGCTACGACGGGATT
B3: CACGAAC (DNA:RNA)
RNA: GGGAGACCGGAAUUCAGAUUGUCCCACGAACUUAAAUCCCGUCGUAGCCACCA
DNA 1: CAATCTGAATTCCGGTCTCCC
DNA 2: TGGTGGCTACGACGGGATT
B4: ACGCAGA (DNA:RNA)
RNA: B3 RNA with C25A, A26C, C27G, G28C, A30G, C31A
DNA 1: CAATCTGAATTCCGGTCTCCC
DNA 2: TGGTGGCTACGACGGGATT
B5: UUGCGGG (DNA:RNA)
RNA: B1 RNA with C26U, A27G, U28C, U29G, C30G, U31G
DNA 1: CAATCTGAATTCCGGTCTCCC
DNA 2: TGGTGGCTACGACGGGATT
B6: GUUACUA (DNA:RNA)
RNA: GGGAGACCGGAAUUCAGAUUGUCCGUUACUAUUAAAUCCCGUCGUAGCCACCA
DNA 1: CAATCTGAATTCCGGTCTCCC
DNA 2: TGGTGGCTACGACGGGATT
B7: AAGGCUC (DNA:RNA)
RNA: B3 RNA with C25A, C27G, A29C, A30U
DNA 1: CAATCTGAATTCCGGTCTCCC
DNA 2: TGGTGGCTACGACGGGATT
B8: UUUUUAC (DNA:RNA)
RNA: B1 RNA with C26U, A27U, C30A, U31C
DNA 1: CAATCTGAATTCCGGTCTCCC
DNA 2: TGGTGGCTACGACGGGATT
B9: GCGCAUU (DNA:RNA)
RNA: B6 RNA with U26C, U27G, A28C, C29A, A31U
DNA 1: CAATCTGAATTCCGGTCTCCC
DNA 2: TGGTGGCTACGACGGGATT
B10: GAUCUGU (DNA:RNA)
RNA: B6 RNA with U26A, A28C, C29U, U30G, A31U
DNA 1: CAATCTGAATTCCGGTCTCCC
DNA 2: TGGTGGCTACGACGGGATT
B11: UUAAUUU (DNA:RNA)
RNA: B1 RNA with C26U, U28A, C30U
DNA 1: CAATCTGAATTCCGGTCTCCC
DNA 2: TGGTGGCTACGACGGGATT
B12: CAAGUGG (DNA:RNA)
RNA: B3 RNA with C27A, A29U, A30G, C31G
DNA 1: CAATCTGAATTCCGGTCTCCC
DNA 2: TGGTGGCTACGACGGGATT
B13: CGGGCAG (DNA:RNA)
RNA: B3 RNA with A26G, C27G, A29C, C31G
DNA 1: CAATCTGAATTCCGGTCTCCC
DNA 2: TGGTGGCTACGACGGGATT
B14: UUGUGGG (DNA:RNA)
RNA: B1 RNA with C26U, A27G, U29G, C30G, U31G
DNA 1: CAATCTGAATTCCGGTCTCCC
DNA 2: TGGTGGCTACGACGGGATT
B15: GCAAGGA (DNA:RNA)
RNA: B6 RNA with U26C, U27A, C29G, U30G
DNA 1: CAATCTGAATTCCGGTCTCCC
DNA 2: TGGTGGCTACGACGGGATT
B16: GUAUUCU (DNA:RNA)
RNA: B1 RNA with U25G, C26U
DNA 1: CAATCTGAATTCCGGTCTCCC
DNA 2: TGGTGGCTACGACGGGATT
B17: GGUAAGC (DNA:RNA)
RNA: B6 RNA with U26G, C29A, U30G, A31C
DNA 1: CAATCTGAATTCCGGTCTCCC
DNA 2: TGGTGGCTACGACGGGATT
B18: CGGGAGC (DNA:RNA)
RNA: B3 RNA with A26G, C27G, A30G
DNA 1: CAATCTGAATTCCGGTCTCCC
DNA 2: TGGTGGCTACGACGGGATT
B19: AAUUACC (DNA:RNA)
RNA: B3 RNA with C25A, C27U, G28U, A30C
DNA 1: CAATCTGAATTCCGGTCTCCC
DNA 2: TGGTGGCTACGACGGGATT
B20: CCUUGGC (DNA:RNA)
RNA: B3 RNA with A26C, C27U, G28U, A29G, A30G
DNA 1: CAATCTGAATTCCGGTCTCCC
DNA 2: TGGTGGCTACGACGGGATT

In the experiment the target is T1, RBFOX1 RRM. The experiment in a line: EMSA; HiTS-Eq, 1 nM pool, 10 min; buffer printed only for the single-RNA assays: 10 mM Tris pH 7.5, 150 mM NaCl, 3.4 mM EDTA, 0.001% NP-40, 30 C. To be noted: tags: His6 N-terminal (pET28a); label: 5' 32P. Put shortly: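 Purified wild-type or mutant RbFox RRM at increasing concentrations was equilibrated with 1 nM of 5′-radiolabelled RNA carrying 7 randomized nucleotides for 10 min in 50 µL. Unbound RNA was separated by 8% native PAGE and sequenced. Relative association constants came from read-count changes of each RNA species compared with the control reaction, normalised to the cognate motif.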
With B1, the binding signal is 0.00326 KA relative to UGCAUGU.

Turning to B2, the binding signal is 0.00989 KA relative to UGCAUGU. Next, B3: 0.00466 KA relative to UGCAUGU; B4: 0.00747 KA relative to UGCAUGU.

For B5, the binding signal is 0.0126 KA relative to UGCAUGU. Next, B6: 0.00518 KA relative to UGCAUGU; B7: 0.014 KA relative to UGCAUGU; B8: 0.00764 KA relative to UGCAUGU.

Regarding B9, the binding signal is 0.0173 KA relative to UGCAUGU. Next, B10: 0.0222 KA relative to UGCAUGU; B11: 0.00947 KA relative to UGCAUGU.

With B12, the binding signal was 0.00449 KA relative to UGCAUGU. As for B13, the binding signal is 0.0252 KA relative to UGCAUGU. Next, B14: 0.0108 KA relative to UGCAUGU; B15: 0.00279 KA relative to UGCAUGU; B16: 0.00664 KA relative to UGCAUGU.

With B17, the binding signal was 0.00141 KA relative to UGCAUGU. In the case of B18 it was 0.0286 KA relative to UGCAUGU. Next, B19: 0.00174 KA relative to UGCAUGU. Regarding B20, the binding signal is 0.0151 KA relative to UGCAUGU.

These data come from PMC9911399, “Two distinct binding modes provide the RNA-binding protein RbFox with extraordinary sequence specificity”.
